Reference: ChEMBL document CHEMBL5291721, “A preclinical secondary pharmacology resource illuminates target-adverse drug reaction associations of marketed drugs” (Nat Commun, 2023)

Columns and labels:
[1] = biological target: Motilin receptor (Homo sapiens, UniProt O43193)
[2] = biological target: T1, Alpha-2A adrenergic receptor (Homo sapiens, UniProt P08913); format: functional, cell-based
T1 sequence (P08913 whole entry): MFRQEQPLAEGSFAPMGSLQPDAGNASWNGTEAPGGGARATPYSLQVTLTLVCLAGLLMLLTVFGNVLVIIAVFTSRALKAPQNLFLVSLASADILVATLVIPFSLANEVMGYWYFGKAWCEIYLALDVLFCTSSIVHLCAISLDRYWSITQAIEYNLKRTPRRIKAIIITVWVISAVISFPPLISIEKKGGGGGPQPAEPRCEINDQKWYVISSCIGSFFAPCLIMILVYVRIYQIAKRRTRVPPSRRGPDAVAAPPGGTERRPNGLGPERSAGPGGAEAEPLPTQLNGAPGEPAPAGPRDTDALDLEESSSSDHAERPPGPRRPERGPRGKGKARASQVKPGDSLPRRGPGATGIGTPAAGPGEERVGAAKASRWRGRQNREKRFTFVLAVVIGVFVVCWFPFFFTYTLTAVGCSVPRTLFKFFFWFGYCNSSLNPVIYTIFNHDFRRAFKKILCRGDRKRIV

[3] = biological target: Growth hormone secretagogue receptor type 1 (Homo sapiens, UniProt Q92847)
[4] = biological target: Vasopressin V2 receptor (Homo sapiens, UniProt P30518)
[5] = biological target: Gastrin/cholecystokinin type B receptor (Homo sapiens, UniProt P32239)
[6] = biological target: Synaptic vesicular amine transporter (Rattus norvegicus, UniProt Q01827); format: functional
[7] = biological target: Glucocorticoid receptor (Homo sapiens, UniProt P04150)
Chain of Glucocorticoid receptor (P04150 whole entry): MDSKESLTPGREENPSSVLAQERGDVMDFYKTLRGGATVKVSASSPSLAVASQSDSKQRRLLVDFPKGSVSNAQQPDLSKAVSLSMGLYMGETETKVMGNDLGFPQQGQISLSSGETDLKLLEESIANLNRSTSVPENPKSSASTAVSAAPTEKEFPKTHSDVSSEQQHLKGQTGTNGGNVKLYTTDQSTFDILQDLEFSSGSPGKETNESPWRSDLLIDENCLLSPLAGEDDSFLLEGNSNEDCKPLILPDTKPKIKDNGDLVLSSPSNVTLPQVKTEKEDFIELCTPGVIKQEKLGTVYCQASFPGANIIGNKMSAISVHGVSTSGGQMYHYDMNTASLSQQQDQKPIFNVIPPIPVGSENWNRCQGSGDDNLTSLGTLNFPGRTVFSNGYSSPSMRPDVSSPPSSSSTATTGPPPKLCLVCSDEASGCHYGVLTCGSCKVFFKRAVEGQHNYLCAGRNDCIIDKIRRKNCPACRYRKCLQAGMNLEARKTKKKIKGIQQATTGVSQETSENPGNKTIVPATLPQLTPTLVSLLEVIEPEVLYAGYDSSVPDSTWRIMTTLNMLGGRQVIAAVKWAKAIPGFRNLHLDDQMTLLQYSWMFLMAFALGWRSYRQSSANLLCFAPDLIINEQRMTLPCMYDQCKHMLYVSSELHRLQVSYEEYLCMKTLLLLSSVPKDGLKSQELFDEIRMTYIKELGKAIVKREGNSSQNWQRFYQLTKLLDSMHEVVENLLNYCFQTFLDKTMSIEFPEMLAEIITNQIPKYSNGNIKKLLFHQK

[8] = biological target: B2 bradykinin receptor (Homo sapiens, UniProt P30411)
Chain of B2 bradykinin receptor (P30411 whole entry): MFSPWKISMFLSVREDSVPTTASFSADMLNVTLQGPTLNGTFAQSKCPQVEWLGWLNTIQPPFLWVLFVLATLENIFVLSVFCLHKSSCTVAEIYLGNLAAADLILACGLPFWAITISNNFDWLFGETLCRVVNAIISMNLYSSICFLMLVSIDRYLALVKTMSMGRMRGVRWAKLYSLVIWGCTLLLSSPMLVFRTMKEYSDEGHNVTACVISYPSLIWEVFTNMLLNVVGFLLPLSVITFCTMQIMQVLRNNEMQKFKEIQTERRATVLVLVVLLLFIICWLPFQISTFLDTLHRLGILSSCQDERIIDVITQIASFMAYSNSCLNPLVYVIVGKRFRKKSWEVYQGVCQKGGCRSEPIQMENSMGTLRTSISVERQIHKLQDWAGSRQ

[9] = biological target: Beta-2 adrenergic receptor (Homo sapiens, UniProt P07550)
[10] = biological target: T2, Thromboxane A2 receptor (Homo sapiens, UniProt P21731); format: functional, cell-based
T2 sequence (P21731 whole entry): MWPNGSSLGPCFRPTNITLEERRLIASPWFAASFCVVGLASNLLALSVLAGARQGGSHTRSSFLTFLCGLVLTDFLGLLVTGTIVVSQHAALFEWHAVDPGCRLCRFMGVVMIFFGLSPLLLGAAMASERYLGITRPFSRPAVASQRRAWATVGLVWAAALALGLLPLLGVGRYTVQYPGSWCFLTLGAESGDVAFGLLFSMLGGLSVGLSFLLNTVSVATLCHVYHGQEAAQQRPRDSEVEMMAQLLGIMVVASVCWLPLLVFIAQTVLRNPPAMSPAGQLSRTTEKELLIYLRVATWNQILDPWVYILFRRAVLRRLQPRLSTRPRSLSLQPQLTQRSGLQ

[11] = biological target: T3, Muscarinic acetylcholine receptor M2 (Homo sapiens, UniProt P08172); format: functional, cell-based
T3 sequence (P08172 whole entry): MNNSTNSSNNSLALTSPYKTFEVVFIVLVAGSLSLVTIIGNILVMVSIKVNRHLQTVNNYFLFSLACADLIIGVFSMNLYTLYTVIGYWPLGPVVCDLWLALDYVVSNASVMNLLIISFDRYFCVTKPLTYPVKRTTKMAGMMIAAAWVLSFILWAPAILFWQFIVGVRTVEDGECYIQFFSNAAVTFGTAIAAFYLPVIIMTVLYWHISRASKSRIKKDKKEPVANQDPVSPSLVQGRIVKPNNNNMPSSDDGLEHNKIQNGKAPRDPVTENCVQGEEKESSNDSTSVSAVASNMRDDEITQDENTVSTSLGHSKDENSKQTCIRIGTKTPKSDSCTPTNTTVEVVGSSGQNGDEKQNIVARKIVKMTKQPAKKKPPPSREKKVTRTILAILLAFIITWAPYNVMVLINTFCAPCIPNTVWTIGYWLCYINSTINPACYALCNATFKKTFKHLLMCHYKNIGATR

[12] = biological target: T1, Alpha-2A adrenergic receptor
[13] = biological target: 3',5'-cyclic-AMP phosphodiesterase 4A (Homo sapiens, UniProt P27815); format: functional
Chain of 3',5'-cyclic-AMP phosphodiesterase 4A (P27815 whole entry): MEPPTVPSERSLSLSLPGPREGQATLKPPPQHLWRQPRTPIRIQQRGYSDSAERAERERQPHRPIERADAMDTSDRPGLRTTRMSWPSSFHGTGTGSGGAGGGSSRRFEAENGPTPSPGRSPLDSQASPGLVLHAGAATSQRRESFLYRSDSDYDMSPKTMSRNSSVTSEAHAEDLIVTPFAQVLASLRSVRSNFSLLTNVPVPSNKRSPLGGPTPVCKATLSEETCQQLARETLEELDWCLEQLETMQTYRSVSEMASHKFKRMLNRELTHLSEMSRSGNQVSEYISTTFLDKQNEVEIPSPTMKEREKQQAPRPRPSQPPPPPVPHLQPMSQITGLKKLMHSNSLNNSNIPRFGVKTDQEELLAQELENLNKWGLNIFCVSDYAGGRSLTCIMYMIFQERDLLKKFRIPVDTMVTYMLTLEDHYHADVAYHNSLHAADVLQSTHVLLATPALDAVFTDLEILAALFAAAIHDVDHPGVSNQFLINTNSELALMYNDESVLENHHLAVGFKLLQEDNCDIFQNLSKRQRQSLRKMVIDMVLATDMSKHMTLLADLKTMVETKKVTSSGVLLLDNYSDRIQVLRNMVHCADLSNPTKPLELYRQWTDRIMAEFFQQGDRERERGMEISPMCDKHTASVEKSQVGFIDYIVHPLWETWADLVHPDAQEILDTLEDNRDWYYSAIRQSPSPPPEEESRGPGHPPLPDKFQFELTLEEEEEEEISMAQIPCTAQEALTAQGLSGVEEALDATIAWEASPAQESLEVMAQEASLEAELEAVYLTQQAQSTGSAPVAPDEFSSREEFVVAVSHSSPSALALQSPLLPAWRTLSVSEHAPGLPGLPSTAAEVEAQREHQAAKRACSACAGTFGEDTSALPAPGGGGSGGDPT

[14] = biological target: Melanocortin receptor 3 (Homo sapiens, UniProt P41968)
Chain of Melanocortin receptor 3 (P41968 whole entry): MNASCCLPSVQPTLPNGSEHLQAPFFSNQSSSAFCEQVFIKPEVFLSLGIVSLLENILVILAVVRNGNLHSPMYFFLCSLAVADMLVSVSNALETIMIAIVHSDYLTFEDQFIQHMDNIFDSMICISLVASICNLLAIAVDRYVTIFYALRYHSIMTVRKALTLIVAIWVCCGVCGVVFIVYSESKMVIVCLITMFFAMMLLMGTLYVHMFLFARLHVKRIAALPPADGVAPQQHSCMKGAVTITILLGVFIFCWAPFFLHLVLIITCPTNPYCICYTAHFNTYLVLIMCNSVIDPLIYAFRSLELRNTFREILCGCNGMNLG

[15] = biological target: Neuropeptide Y receptor type 1 (Homo sapiens, UniProt P25929)
[16] = biological target: 3',5'-cyclic-AMP phosphodiesterase 4D (Homo sapiens, UniProt Q08499); format: functional
[17] = biological target: Type-1 angiotensin II receptor (Homo sapiens, UniProt P30556)
[18] = biological target: Acetylcholinesterase (Homo sapiens, UniProt P22303); format: functional
Chain of Acetylcholinesterase (P22303 whole entry): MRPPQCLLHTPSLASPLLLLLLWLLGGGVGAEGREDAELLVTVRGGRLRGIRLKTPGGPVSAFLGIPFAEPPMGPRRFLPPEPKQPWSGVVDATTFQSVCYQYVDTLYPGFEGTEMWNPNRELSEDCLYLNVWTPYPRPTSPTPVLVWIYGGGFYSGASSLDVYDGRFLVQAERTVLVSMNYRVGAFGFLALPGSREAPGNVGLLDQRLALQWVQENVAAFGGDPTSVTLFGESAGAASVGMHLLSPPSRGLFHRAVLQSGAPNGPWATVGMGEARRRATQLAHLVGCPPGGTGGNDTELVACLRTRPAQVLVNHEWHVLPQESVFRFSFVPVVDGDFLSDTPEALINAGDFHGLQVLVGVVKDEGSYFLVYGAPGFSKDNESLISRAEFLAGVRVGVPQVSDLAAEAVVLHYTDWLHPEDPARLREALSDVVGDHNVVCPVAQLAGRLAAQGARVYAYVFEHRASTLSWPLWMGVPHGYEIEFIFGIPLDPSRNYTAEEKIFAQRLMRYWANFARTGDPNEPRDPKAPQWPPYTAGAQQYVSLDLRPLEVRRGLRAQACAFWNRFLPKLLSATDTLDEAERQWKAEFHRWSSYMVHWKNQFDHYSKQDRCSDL

[19] = biological target: T3, Muscarinic acetylcholine receptor M2
[20] = biological target: Adenosine receptor A3 (Homo sapiens, UniProt P0DMS8)
Chain of Adenosine receptor A3 (P0DMS8 whole entry): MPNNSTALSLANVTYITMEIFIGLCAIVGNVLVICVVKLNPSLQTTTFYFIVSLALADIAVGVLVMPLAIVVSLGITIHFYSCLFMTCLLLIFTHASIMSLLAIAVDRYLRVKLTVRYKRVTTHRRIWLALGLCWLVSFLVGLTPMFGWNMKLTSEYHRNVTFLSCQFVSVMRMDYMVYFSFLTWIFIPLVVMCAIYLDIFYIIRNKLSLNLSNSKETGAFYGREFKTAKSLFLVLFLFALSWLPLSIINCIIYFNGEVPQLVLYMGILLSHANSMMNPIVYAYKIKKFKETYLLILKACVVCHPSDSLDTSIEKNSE

[21] = biological target: T2, Thromboxane A2 receptor
[22] = biological target: Vasopressin V1a receptor (Homo sapiens, UniProt P37288)
[23] = biological target: Bile salt export pump (Homo sapiens, UniProt O95342); format: functional
[24] = biological target: T1, Alpha-2A adrenergic receptor; format: functional, cell-based; remark: listed apart in the source
[25] = biological target: T2, Thromboxane A2 receptor; format: functional, cell-based; remark: listed apart in the source
[26] = biological target: Glutamate receptor ionotropic, NMDA 1 (Rattus norvegicus, UniProt P35439)
[27] = biological target: Mu-type opioid receptor (Homo sapiens, UniProt P35372)
Chain of Mu-type opioid receptor (P35372 whole entry): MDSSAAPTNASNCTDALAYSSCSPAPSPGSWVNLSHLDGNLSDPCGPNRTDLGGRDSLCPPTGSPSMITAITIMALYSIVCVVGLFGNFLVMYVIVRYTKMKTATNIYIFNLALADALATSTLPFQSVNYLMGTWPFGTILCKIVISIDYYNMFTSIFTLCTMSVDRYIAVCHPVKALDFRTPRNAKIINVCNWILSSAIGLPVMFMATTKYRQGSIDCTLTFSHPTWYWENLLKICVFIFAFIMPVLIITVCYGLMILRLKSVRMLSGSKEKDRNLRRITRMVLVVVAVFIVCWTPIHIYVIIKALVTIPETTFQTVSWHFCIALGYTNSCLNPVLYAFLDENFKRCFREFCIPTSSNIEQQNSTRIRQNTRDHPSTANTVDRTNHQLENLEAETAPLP

[28] = biological target: Progesterone receptor (Homo sapiens, UniProt P06401); format: functional
[29] = biological target: Kappa-type opioid receptor (Homo sapiens, UniProt P41145)
Chain of Kappa-type opioid receptor (P41145 whole entry): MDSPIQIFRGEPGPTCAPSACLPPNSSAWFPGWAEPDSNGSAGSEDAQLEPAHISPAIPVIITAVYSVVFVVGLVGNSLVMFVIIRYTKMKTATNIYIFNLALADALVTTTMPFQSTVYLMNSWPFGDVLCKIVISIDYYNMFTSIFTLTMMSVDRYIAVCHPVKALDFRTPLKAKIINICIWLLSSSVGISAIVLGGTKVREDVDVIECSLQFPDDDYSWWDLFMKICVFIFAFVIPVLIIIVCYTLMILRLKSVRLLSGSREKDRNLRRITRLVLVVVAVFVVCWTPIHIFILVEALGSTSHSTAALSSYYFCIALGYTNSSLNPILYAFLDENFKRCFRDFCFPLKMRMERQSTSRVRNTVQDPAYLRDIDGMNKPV
Note: assay procedure not described here.

Chain of Motilin receptor (O43193 whole entry): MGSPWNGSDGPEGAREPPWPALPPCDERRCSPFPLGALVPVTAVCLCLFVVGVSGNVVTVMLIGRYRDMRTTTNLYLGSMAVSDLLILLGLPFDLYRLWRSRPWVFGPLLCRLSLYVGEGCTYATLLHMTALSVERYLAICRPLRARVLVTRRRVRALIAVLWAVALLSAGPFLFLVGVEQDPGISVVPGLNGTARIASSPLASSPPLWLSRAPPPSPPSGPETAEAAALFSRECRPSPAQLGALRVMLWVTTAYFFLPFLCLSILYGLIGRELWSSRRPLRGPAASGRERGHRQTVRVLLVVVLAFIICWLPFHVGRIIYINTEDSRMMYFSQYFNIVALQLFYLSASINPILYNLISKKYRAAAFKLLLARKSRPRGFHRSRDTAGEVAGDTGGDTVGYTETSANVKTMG

CC(C)(C)CC(C)(C)c1ccc(OCCOCC[N+](C)(C)Cc2ccccc2)cc1 [BENZETHONIUM]
AC50 [1]: 2.7 µM | AC50 [2]: 11 µM | AC50 [3]: 6.4 µM | AC50 [4]: 14 µM | AC50 [5]: > 10 µM | AC50 [6]: 0.18 µM | AC50 [7]: 14 µM | AC50 [8]: 30 µM | AC50 [9]: 27 µM | AC50 [10]: > 10 µM | AC50 [11]: 18 µM | AC50 [12]: 10.6 µM | AC50 [13]: 14.3 µM | AC50 [14]: 7.5 µM | AC50 [15]: 15 µM | AC50 [16]: 29 µM | AC50 [17]: 25 µM | AC50 [18]: 2.33 µM | AC50 [19]: 1.1 µM | AC50 [20]: 3.9 µM | AC50 [21]: > 10 µM | AC50 [22]: 15 µM | AC50 [23]: 29 µM | AC50 [24]: > 10 µM | AC50 [25]: > 3 µM

CN(C)CCCN1c2ccccc2CCc2ccc(Cl)cc21 [CLOMIPRAMINE]
AC50 [26]: > 10 µM

CCC1(c2cccc(O)c2)CCCCN(C)C1 (stereo not given) [MEPTAZINOL]
AC50 [27]: 0.0826 µM

Clc1ccc(COC(Cn2ccnc2)c2ccc(Cl)cc2Cl)cc1 (stereo not given) [ECONAZOLE]
AC50 [7]: 10.9 µM | AC50 [28]: 11.7 µM | AC50 [29]: 2.33 µM
